Reference: the antibiotic and cytotoxicity screens of Wong et al. (2023)
This is one part of the list.

Tests used:
[1] = system: HSkMC (human skeletal muscle cells); assay: cytotoxicity call (relative viability < 0.9); settings: 10 µM
[2] = system: HepG2; assay: cytotoxicity call (relative viability < 0.9); settings: 10 µM
[3] = system: S. aureus RN4220; assay: growth inhibition call (relative growth <= 0.2); settings: 50 µM

C/C=C/c1ccc2c(c1)O[C@@H](CN(C)Cc1ccc(C(=O)O)cc1)[C@@H](C)CN([C@H](C)CO)S2(=O)=O
cytotoxicity call [1]: inactive
cytotoxicity call [2]: inactive
growth inhibition call [3]: inactive

C[C@H]1CCCCO[C@@H](CN(C)S(=O)(=O)c2cccs2)[C@@H](C)CN([C@@H](C)CO)C(=O)c2cc(NC(=O)C3CCCCC3)ccc2O1
cytotoxicity call [1]: inactive
cytotoxicity call [2]: inactive
growth inhibition call [3]: inactive

Cc1noc(C)c1S(=O)(=O)Nc1ccc2c(c1)C(=O)N([C@H](C)CO)C[C@@H](C)[C@H](CN(C)S(=O)(=O)c1cccs1)O2
cytotoxicity call [1]: inactive
cytotoxicity call [2]: inactive
growth inhibition call [3]: inactive

COc1ccc(CNC(=O)N(C)C[C@@H]2OCc3ccccc3-c3c(n(C)c4ccccc34)C(=O)N([C@H](C)CO)C[C@@H]2C)cc1
cytotoxicity call [1]: inactive
cytotoxicity call [2]: inactive
growth inhibition call [3]: inactive

C[C@@H]1CN([C@H](C)CO)C(=O)c2cccc(NC(=O)Nc3cccc4ccccc34)c2O[C@@H]1CN(C)CC1CCCCC1
cytotoxicity call [1]: inactive
cytotoxicity call [2]: inactive
growth inhibition call [3]: inactive

CN(C)S(=O)(=O)c1ccc2c(c1)CCN2
cytotoxicity call [1]: inactive
cytotoxicity call [2]: inactive
growth inhibition call [3]: inactive

Cc1noc(C)c1S(=O)(=O)Nc1ccc2c(c1)CC(=O)N([C@@H](C)CO)C[C@@H](C)[C@H](CN(C)Cc1ccc(C(=O)O)cc1)O2
cytotoxicity call [1]: inactive
cytotoxicity call [2]: inactive
growth inhibition call [3]: inactive

C=CCc1ccc(O[C@@H]2O[C@H](CO[C@@H]3O[C@@H](C)[C@H](O)[C@@H](O)[C@H]3O)[C@@H](O)[C@H](O)[C@H]2O)c(O)c1
cytotoxicity call [1]: inactive
cytotoxicity call [2]: inactive
growth inhibition call [3]: inactive

CN(C)CCCNC(=O)C[C@@H]1CC[C@@H]2[C@H](COc3ccc(NC(=O)c4cccc(F)c4)cc3C(=O)N2C)O1
cytotoxicity call [1]: inactive
cytotoxicity call [2]: inactive
growth inhibition call [3]: inactive

CCN(CC)CCNc1ccc(CO)c2sc3ccccc3c(=O)c12
cytotoxicity call [1]: inactive
cytotoxicity call [2]: active
growth inhibition call [3]: inactive

C[C@@H]1CN([C@H](C)CO)C(=O)Cc2cc(NC(=O)C3CC3)ccc2O[C@@H]1CN(C)Cc1ccc2c(c1)OCO2
cytotoxicity call [1]: inactive
cytotoxicity call [2]: inactive
growth inhibition call [3]: inactive

CC(=O)OCC(=O)C12OC(C)(C)OC1CC1C3CC(F)C4=CC(=O)C=CC4(C)C3(F)C(O)CC12C (stereo not given)
cytotoxicity call [1]: inactive
cytotoxicity call [2]: inactive
growth inhibition call [3]: inactive

Clc1cccc(Cc2cn3cc(-c4ccccc4)nc3s2)c1
cytotoxicity call [1]: inactive
cytotoxicity call [2]: inactive
growth inhibition call [3]: inactive

C[C@H]1CN([C@@H](C)CO)C(=O)c2cc(NC(=O)Cc3ccccc3)ccc2O[C@@H]1CN(C)S(=O)(=O)c1cccs1
cytotoxicity call [1]: inactive
cytotoxicity call [2]: inactive
growth inhibition call [3]: inactive

CCCC#Cc1ccc2c(c1)O[C@H](CN(C)C(=O)c1cnccn1)[C@@H](C)CN([C@H](C)CO)S2(=O)=O
cytotoxicity call [1]: inactive
cytotoxicity call [2]: inactive
growth inhibition call [3]: inactive

COCCOC(=O)N1C(=O)[C@@]2(c3ccccc31)[C@H](c1ccccc1OCCO)N1[C@H](c3ccccc3)[C@H](c3ccccc3)OC(=O)[C@H]1[C@@H]2C(=O)Nc1nc2ccccc2s1
cytotoxicity call [1]: inactive
cytotoxicity call [2]: inactive
growth inhibition call [3]: inactive

CN1CCN(C(=O)C[C@H]2CC[C@@H]3[C@H](COC[C@@H](O)CN3Cc3ccc(Oc4ccccc4)cc3)O2)CC1
cytotoxicity call [1]: inactive
cytotoxicity call [2]: active
growth inhibition call [3]: inactive

COc1ccc(CN(C)C[C@H]2Oc3ccc(NC(=O)Nc4cccc5ccccc45)cc3CC(=O)N([C@H](C)CO)C[C@H]2C)cc1
cytotoxicity call [1]: active
cytotoxicity call [2]: active
growth inhibition call [3]: inactive

C[C@H]1CN([C@@H](C)CO)C(=O)c2cc(NS(C)(=O)=O)ccc2O[C@H]1CN(C)S(=O)(=O)c1ccc(F)cc1
cytotoxicity call [1]: inactive
cytotoxicity call [2]: inactive
growth inhibition call [3]: inactive

COc1ccc2c3c([nH]c2c1)[C@@H](CO)N(C[C@]13CCN(CC1)S(=O)(=O)C)C(=O)Nc1ccc(cc1)F
cytotoxicity call [1]: inactive
cytotoxicity call [2]: inactive
growth inhibition call [3]: inactive

Cc1ccc(S(=O)(=O)N(C)C[C@H]2Oc3ccc(NC(=O)CCCN(C)C)cc3CC(=O)N([C@H](C)CO)C[C@@H]2C)cc1
cytotoxicity call [1]: inactive
cytotoxicity call [2]: inactive
growth inhibition call [3]: inactive

COCC#Cc1ccc2c(c1)O[C@H](CN(C)S(=O)(=O)c1cccc(F)c1)[C@H](C)CN([C@@H](C)CO)S2(=O)=O
cytotoxicity call [1]: inactive
cytotoxicity call [2]: inactive
growth inhibition call [3]: inactive

C[C@@H]1CN([C@@H](C)CO)C(=O)c2cc(NC(=O)Nc3ccc(F)cc3)ccc2O[C@@H]1CN(C)Cc1ccc(C(F)(F)F)cc1
cytotoxicity call [1]: active
cytotoxicity call [2]: active
growth inhibition call [3]: inactive

Cc1noc(C)c1NC(=O)N(C)C[C@@H]1Oc2c(NC(=O)NC(C)C)cccc2C(=O)N([C@H](C)CO)C[C@@H]1C
cytotoxicity call [1]: inactive
cytotoxicity call [2]: inactive
growth inhibition call [3]: inactive

COc1ccc(S(=O)(=O)N2C[C@@H](O)COC[C@@H]3O[C@@H](CC(=O)N[C@@H]4CCN(Cc5ccccc5)C4)CC[C@H]32)cc1
cytotoxicity call [1]: inactive
cytotoxicity call [2]: inactive
growth inhibition call [3]: inactive
